Among all 360,000 compounds or so, about 17,000 (4.7%) were called active. The shares of active, inactive and inconclusive entries below differ from those in the screen. Rule as the data show it: active = activity change below about -50%; inconclusive = mostly about -30% to -49%; inactive = weaker than that.
Experiment: qHTS for Inhibitors of Inflammasome Signaling: IL-1-beta AlphaLISA Primary Screen
Conditions: THP-1 LPS/ATP IL-1B secretion, 16 h; at 57.5 µM, stronger effect = lower value
Method in brief: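 THP-1 cells pretreated 1 hr with compounds (up to 57.5 uM final), then stimulated with LPS (250 ng/mL final) plus ATP (1.25 mM final); secreted IL-1B measured by AlphaLISA after 16 hr, decreased signal indicating inhibition.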
% is scaled to controls: 0 for no effect and ±100 for the full control effect.

SMILES | activity change
C=CCn1c(SCC(=O)N2CCOCC2)nc2sc3c(c2c1=O)CCCC3 | active: -77%
CC(C)Sc1nsc2nc(=O)c(/C=C3\C=Nc4ccccc43)c(N)n12 | inconclusive: -30.7%
CCOC(=O)c1c(CN2CCOCC2)n(C)c2cc(Br)c(O)c(CN(C)C)c12 | inconclusive: -35.5%
CCN1CCCC1Cn1cnc2c([nH]c3ccc(C)cc32)c1=O (stereo unspecified) | active: -58.4%
COc1ccc(C=C2SC(=S)N(CCCC(=O)Nc3ccc(C(=O)O)c(O)c3)C2=O)cc1OC | inconclusive: -37.2%
CCOC(=O)N1CCC(NC(=O)CSCc2nc(-c3ccc(OC)cc3)oc2C)CC1 | inconclusive: -35.7%
CCN1CCN(C(=O)C2CCN(Cc3cc(Cl)ccc3O)CC2)CC1 | active: -77.1%
O=C(/C=C/c1cccs1)Nc1ccncc1 | inconclusive: -41.8%
CCOc1ccc(/C=C/C2=Cc3c(sc(NC(=O)CSc4n[nH]c(N)n4)c3C#N)C(C)(C)C2)cc1 | active: -92.6%
COc1cccc(NC(=S)NN=C2CCC(C(C)(C)C)CC2)c1 (stereo unspecified) | inconclusive: -30.5%
Cc1ccc(Nc2c(-c3ccccn3)nc3cc(C)ccn23)cc1 | active: -100%
COc1cc(C(C)=O)ccc1OCC(O)CN1CCN(c2ccccn2)CC1 (stereo unspecified) | active: -56.3%
Cc1ccc(CNC(=O)c2ccc(CS(=O)Cc3cccc(Cl)c3)o2)cc1 (stereo unspecified) | inconclusive: -38.2%
CCOC(=O)c1sc(NC(=O)c2ccoc2C)c(C(N)=O)c1C | inactive: -5.13%
OC(c1cccc(Cl)c1)c1ncc(-c2ccc(C(F)(F)F)cc2)[nH]1 (stereo unspecified) | inconclusive: -32.5%
C1=C[C@@H]2CCN(Cc3ccccc3)Cc3cccc(c32)C1 | inactive: 19.4%
COc1ccc(CCN2CCCC(CN(C)Cc3cc(OC)ccc3OC)C2)cc1 (stereo unspecified) | inconclusive: -32.8%
CCC(C)(C)n1nnnc1CN(Cc1ccco1)Cc1cc2cc3c(cc2[nH]c1=O)OCO3 | inconclusive: -44.4%
Cc1cc(NCCCn2ccnc2)n2nc(C)c(-c3ccccc3)c2n1 | inactive: -22.4%

SMILES | activity change
CC(C)c1ccc(NC(=S)NC2CCCCCC2)cc1 | inconclusive: -43.9%
CC(=O)c1c(NCCc2ccccc2)nc(=S)n(-c2ccccc2)c1C | active: -101%
O=C1C(=Cc2cn(-c3ccccc3)nc2-c2ccc(OCc3ccccc3F)cc2)SC(=S)N1CCS(=O)(=O)O | inconclusive: -32.9%
O=C(CN1CCN(c2ncccn2)CC1)NCc1ccc2c(c1)OCO2 | inactive: 1.73%
Oc1ccc(Cl)cc1CNC1CCCCC1 | inconclusive: -48.7%
COc1ccc(C2=NN(C(=O)CSc3nc4ncc(Cl)cc4[nH]3)C(c3ccco3)C2)cc1 (stereo unspecified) | inconclusive: -42.2%
O=C(COc1ccccc1)NNC(=S)NC(=O)c1ccccc1 | inactive: 32.1%
Cc1cc(NC(=O)CCC(=O)N(CCC(C)C)C(C(=O)NC2CCCC2)c2ccccc2C)no1 (stereo unspecified) | inactive: -3.48%
Cc1ccc(CNC(=O)COC(=O)CCCOc2ccc(Cl)cc2Cl)cc1 | inactive: -6.01%
O=S(=O)(O)Sc1ccccc1 | active: -98.6%
COCCNC(=O)c1ccc(CS(=O)(=O)c2ccccc2)o1 | inactive: 10.2%
O=C(CCN1C(=O)CSc2ccccc21)Nc1cccc(C(F)(F)F)c1 | inconclusive: -36.1%
NS(=O)(=O)c1ccc(NC(=O)Nc2ccc3c(c2)OCO3)cc1 | inactive
CCc1cccc(NC(=O)C2CC2c2ccccc2)c1 (stereo unspecified) | inconclusive: -42.6%
COc1cc(-c2nnc(-c3cc(-c4ccccc4)nc4ccccc34)o2)cc(OC)c1OC | inactive: -11.8%
NC(CCCCCP(=O)(c1ccccc1)c1ccccc1)C(=O)O (stereo unspecified) | inactive: 21.2%
Cc1onc(-c2ccccc2)c1C(=O)NC(=S)NNC(=O)c1ccccc1O | inactive: 100%
CC1CCN(C(=O)c2ncn(C)c2C(=O)N2CCC(C)CC2)CC1 | inactive: 21.7%
Cc1ccccc1Oc1nc(-c2ccccn2)nc2ccccc12 | inconclusive: -31.8%

SMILES | activity change
O=C(Nc1cc(Cl)ccc1N1CCOCC1)c1ccco1 | inconclusive: -41.9%
Cc1ccc(S(=O)(=O)Nc2ccc(SC(F)F)cc2)c(C)c1 | inconclusive: -32.4%
COc1ccc(-c2sc(Nc3ccc(F)c(F)c3F)nc2CCC(=O)NN)cc1 | inconclusive: -49%
Oc1ccc(C2C(c3ccccc3)=NN=C(c3ccc(Cl)cc3)N2O)c(O)c1 (stereo unspecified) | inconclusive: -30.7%
CC(C)(C)NC(=O)C(c1ccncc1)N(C(=O)Cn1nnc(-c2cccs2)n1)C1CCCCC1 (stereo unspecified) | inconclusive: -36.5%
COc1cccc(NC(=O)C2CCN(S(=O)(=O)c3ccc4[nH]c(=O)ccc4c3)CC2)c1 | inactive: -7.91%
CCCn1c(=N)c(C(=O)NCC2CCCO2)cc2c(=O)n3cccc(C)c3nc21 (stereo unspecified) | inconclusive: -40.6%
O[C@H]1C[C@H](c2ccc(Cl)cc2)N(CC2CCCCC2)C[C@@H]1n1cc(C2CC2)nn1 | inconclusive: -43.9%
CCCCc1ccc(C2C3=C(CC(C)(C)CC3=O)NC3=C2C(=O)c2ccccc23)cc1 (stereo unspecified) | inconclusive: -31.6%
COc1cc2c(cc1OC)C(=O)N1[C@H]3c4cc(C)ccc4OC[C@@H]3[C@H](c3ccccc3)[C@]1(C)C(=O)N2 | active: -50.5%
CC(=O)N1CCN(c2ccccc2NC(=O)c2cc3ccccc3o2)CC1 | inconclusive: -38.2%
CCc1cc(C(c2ccccc2OC)N2CCOCC2)c(NC(=O)c2ccccc2)s1 (stereo unspecified) | inconclusive: -32.9%
COC(=O)c1sc(-c2ccc(C(C)(C)C)cc2)cc1NC(=O)/C=C/C(=O)O | active: -98.5%
O=C(Nc1ccc(NC(=O)c2cccs2)cc1)c1ccccc1 | inconclusive: -31.5%
O=C(Nc1ccc(Br)cc1)c1ccc2c(c1)OCO2 | inconclusive: -39.1%
CCCC(=O)NC(=S)Nc1ccc(N2CCN(C(=O)c3cccs3)CC2)cc1 | active: -85.4%
CCCCNCCOc1ccccc1-c1ccccc1 | active: -60.3%
COc1ccc(CCNC(=O)c2c(-c3ccccc3)noc2C)cc1OC | inactive: -1.03%

— PubChem BioAssay AID743279 (National Center for Advancing Translational Sciences (NCATS), 2014)
